Measurements reported in ChEMBL document CHEMBL4888484, “Replenishing the malaria drug discovery pipeline: Screening and hit evaluation of the MMV Hit Generation Library 1 (HGL1) against asexual blood stage Plasmodium falciparum ,using a nano luciferase reporter read-out” (2022).
“And” between values parts separate entries of the source, which are not always exact repeats. Equal entries are not always repeated. Among all 150,000 compounds or so, about 540 (0.36%) showed an effect of 50% or more. This is one part of the list.

System: Plasmodium falciparum
Assay: Primary screen in NF54 nanoGlo assay, in single point, at 2uM, 72h; a lower Z score goes with more inhibition
Assay type: functional, Erythrocyte
Details: timepoint 72 hour

Structure (SMILES)	% Inhibition [%]	Z score	% Inhibition (2 µM)
N#Cc1c(-c2cccn2-c2ncccn2)cc(C2CCC2)nc1N	-15	1.61	
C[C@H](NC(=O)CCN1C(=O)c2nccnc2C1=O)c1nc2ccccc2n1C	4	-0.52	
COc1ccc(NC(=O)c2c([O-])n(-c3ccc(OC)cc3)n[n+]2CC#N)cc1	13	-2.09	
CCCS(=O)(=O)NC1CCN(c2cc(-c3ccccc3)c3ccccc3n2)CC1	2	-0.42	
CCC(CC)n1nc(C(=O)N2CC[C@H]2c2ccccc2F)cc1C	0	0.05	
Cc1n[nH]c(C)c1CNC(=O)CC1CCCCC1C (stereo not given)	-12	2.1	
COc1ccc([C@H](Cc2ccncc2)NCCCC2(O)CCC2)cc1	-3	0.54	
COc1ccc(C(=O)N(CC(=O)Nc2nc(-c3ccccc3)cn2-c2cccc(Cl)c2)Cc2ccccc2)cc1	-8	0.96	
CCN(CCn1cccn1)Cc1ccn(CC)n1	-13	1.16	
CC(OCC1CCCO1)C(=O)N1CC(O)(c2ccc(Cl)cc2)C1 (stereo not given)	-4	0.85	
Cn1ccnc(N2CC(Cc3ccc(F)c(F)c3)C2)c1=O	-6	0.98	
O=C(Nc1ccccc1CN1C(=O)CCC1=O)NC1CCCCCCC1	0	0.04	
Cc1nc2[nH]c(-c3ccc4ccccc4c3)cc(=O)n2n1	-4	0.6	
N#Cc1ccc(C(=O)N2C3CCC2CC(n2nccn2)C3)cc1 (stereo not given)	-12	2.21	
CNC(=O)C[C@H](C)N(C)C(=O)c1ccc(-c2ccc(C)nc2C)cc1	-3	0.55	
Cc1cc(NC(=O)C2CCOCC2)n(-c2cc(C(F)(F)F)ccc2Cl)n1	1	-0.07	
CCC(CC)(CC)NC(=O)C[C@H]1CCS(=O)(=O)C1	-2	0.2	
C[C@H](O)C(=O)NCCc1ccc(C(F)(F)F)cn1	-6	1.14	
O=S(=O)(c1ccc(F)cc1)N1CCC[C@](CC2CC2)(c2noc(C3CCOCC3)n2)C1	-10	1.35	
COc1cc2nc(N(C)C)c(CN(CCc3ccc(F)cc3)C(=O)c3cc(C)nn3C)cc2c(OC)c1OC	0	0.02	
Cn1ccc(C(=O)Nc2cccc(-c3ccc4c(c3)CCO4)c2)cc1=O	8	-0.95	

Structure (SMILES)	% Inhibition [%]	Z score	% Inhibition (2 µM)
Cc1cc(C(=O)N2C[C@@H]3NC(=O)CN(C)C(=O)c4ccc(C)c(c4)Oc4cccc(c4)CO[C@H]3C2)n(C)n1	-6	0.81	
COCC1(CNc2ncc(C#N)c(N)n2)CCC1	4	-0.82	
CCn1c(=O)c(C(=O)N2CCN(c3ccccc3F)CC2)nc2cccnc21	-16	1.81	
Cc1nc(C)c(-c2cnn(CCC(C)C)c2)[nH]1	-1	0.12	
COCCC(=O)N1CC[C@H](c2nc(CCOCc3ccccc3)no2)C1	0	0.04	
CCN1CCN(C(=O)c2cnc(-c3ccc(F)cc3)nc2N(C)C)CC1	3	-0.5	
COC(=O)c1ccc2c(c1)[n+](C)c(C)n2C1CCCCC1	-16	3.09	
CN(C)[C@H](c1ccccc1)c1nc(-c2cccs2)no1	-7	0.86	
Cc1n[nH]c(-c2nc(CC(N)=O)nn2C(C)(C)C)c1Cl	-7	1.41	
CO[C@H]1CN(Cc2csc(C)n2)C[C@@H]1O	-17	1.68	
CO[C@H]1CCN(c2ncc(Cl)cn2)C1	-9	1.05	
Cc1nc(C(F)(F)F)c(CN2CCC3(CC2)C[C@@H]3C(=O)O)s1	-2	0.36	
O=C(NCc1ccccc1Cl)C1[C@@H]2C=C[C@@]3(CN(Cc4cccnc4)C(=O)[C@H]13)O2 (stereo not given in full)	-20	2.68	
COc1ccccc1-c1n[nH]c(=O)n1-c1cccc(C)c1	7	-1.14	
CCCn1c(C)cnc1[C@H]1CCN(C(=O)NCCC(=O)OCC)C1	-10	1.44	
CNc1nc(C)c(C(=O)N2CCN(CC3CC3)[C@@H]3CS(=O)(=O)C[C@@H]32)s1	2	-0.27	
O=C(c1csc(-c2ncc[nH]2)n1)N1CCCC[C@@]12CCOC2	-9	1.52	
Cc1nnc(N2CC3OCCN(Cc4ccccc4)C3C2)s1 (stereo not given)	-5	0.92	
CC(C)(C)ONC(=O)Nc1ccn(CC(F)(F)F)n1	-5	0.89	
CCc1nccn1CCC(=O)N[C@@H](C)c1n[nH]c(C)n1	-3	0.31	
COCc1nc(N2CCC(c3n[nH]cc3C)CC2)cc([C@H]2C[C@H](N)C2)n1	9	-1.69	

Structure (SMILES)	% Inhibition [%]	Z score	% Inhibition (2 µM)
Cc1ccccc1S(=O)(=O)N1CCN(C(=O)N2C[C@H]3C[C@H](C2)[C@H]2CCCC(=O)N2C3)CC1	-1	0.27	
CN(Cn1c(=O)n(C)c2ccccc21)[C@H]1CCS(=O)(=O)C1	-8	1.12	
CCOC(=O)N1CCC(C)(CN2CCS(=O)(=O)C[C@@H](C)C2)CC1	-13	1.46	
CCOCCc1nc(CCc2ccccc2)nn1-c1ccccn1	-15	1.81	
CC(=O)Nc1nc(CN[C@@H](C)c2ncc(C)s2)cs1	-12	1.49	
N#CC1CCCC1NC(=O)Nc1cnn(-c2cccc(C(F)(F)F)c2)c1 (stereo not given)	-10	1.45	
O=C(NCc1nc(C2CCC(F)(F)CC2)no1)c1ccc(Br)o1	-5	0.78	
O=C(COC[C@H]1CCCCO1)NCc1cccnc1	-4	0.55	
OC1CCC(NC(=NC2CC2)NCc2ccccc2F)CC1 (stereo not given)	-9	1.4	
COc1ccc(-c2nn(-c3ccccc3)cc2C(=O)N(C)C[C@H]2COc3ccccc3O2)c(OC)c1	2	-0.45	
O=C(CC1CCCC1)N1CCC[C@H](c2n[nH]c(=O)n2-c2ccccc2)C1	-4	0.61	
CN(CC(=O)N(C)C)Cc1csc(C(C)(C)C)n1	-1	0.07	
CN(C)c1cc(O[C@H]2CCN(C(=O)CC3CCCC3)C2)ncn1	-7	0.9	
COc1nccc(-c2cccc(C(=O)N3[C@@H]4CC[C@H]3CN(C)CC4)c2)c1C#N	0	-0.03	
Cc1c(C(=O)N2CCC[C@H](N)C2)nnn1-c1cccc2ncccc12	-1	0.23	
O=C(CCNc1ccc(Cc2ccncc2)cc1)c1ccc2c(c1)OCO2	9	-1.21	
CO[C@H]1CCN(c2ncnc3c(-c4ccccc4)nsc23)C1	2	-0.13	
OC1(CNC[C@H]2CCC3(CCOCC3)CO2)CCCCC1	-2	0.31	
CCC(=O)N(Cc1ccc(OC)cc1)Cc1cc2ccc(F)cc2nc1N1CCC(O)CC1	-7	1.01	
Cc1ccc(-n2c(=O)c3ccccc3n(CC(=O)NCc3cccnc3)c2=O)cc1Cl	36	-4.8	
C1=C(CN2CCC[C@H](CN3CCOCC3)C2)CCCC1	5	-0.75	

Structure (SMILES)	% Inhibition [%]	Z score	% Inhibition (2 µM)
CC(=O)N1CCN(C(=O)c2cc(-c3ccc(C(C)(C)C)cc3)n(C)n2)CC1	3	-0.33	
O=C(Cn1nc(C2CC2)nc1C1CC1)N1CCOCC1	37	-1.4	
CC1CC(C)CN(C(=O)C2CC(=O)N(C3CC3)C2)C1 (stereo not given)	-7	0.94	
NC(=O)[C@@H]1CCC[C@@H]1Nc1cc(-c2ccccc2F)nc2ccnn12	3	-0.33	
O=C(CCn1nnc2cc(S(=O)(=O)N3CCCC3)ccc21)NCc1cccnc1	-26	2.6	
COCC[C@H]1COCCN1S(=O)(=O)N1CCc2ccccc2C1	-12	2.22	
c1coc(C2CCN(C[C@H]3CCC4(CCCC4)O3)CC2)n1	-8	1.09	
CCOc1cc2cc(c1)C(=O)N(C)CC(=O)N[C@@H]1CN(Cc3cc(O)nc(C)n3)CC[C@@H]1OCc1cccc(c1)O2	-20	3.81	
Cc1noc(-c2cccnc2-n2ncc(C(=O)NCc3ccco3)c2C)n1	-17	2.64	
O=C(NCc1cccs1)N1CC[C@H](Oc2cc(C(F)(F)F)ccn2)C1	-9	1.75	
CC(NC(=O)C1CCC(c2ccccc2)N(C(=O)c2ccc(Cl)cc2)C1)c1ccccc1 (stereo not given)	-3	0.48	
CCOc1ccc(CN[C@@H](CC)CO)cc1Br			1% and -3%
O=C(Nc1cccc(F)c1)Nc1cccc(-c2cc3ccccc3[nH]2)c1	3	-0.38	
CCOCC(=O)N1CC(S(=O)(=O)Cc2ccco2)C1	1	-0.07	
Cc1ccc(NC[C@H]2CCN(CC(=O)NCc3cccs3)C2)nc1	-1	0.15	
CC(C)N1CCC(N2CCN(Cc3cccc4ccccc34)C[C@@H]2CCO)CC1	-1	0.09	
C[C@]1(C#N)CCCN(C(=O)CCC(F)(F)F)C1	-8	1.33	
CCN(CC)c1ncc(CNC2CC(C(F)(F)F)CC(C(F)(F)F)C2)s1 (stereo not given)	-15	2.14	
COCc1nc(CO[C@H]2CCCN(S(=O)(=O)c3ccc(C(C)C)cc3)C2)no1	-8	1.14	
CN(CCCO)C(=O)CO[C@H](c1ccccc1)C(F)(F)F	-7	1.23	
